This is one part of the list.

The subject of this assay is PfHDP1 homeodomain (GST-tagged). The assay can be described thus: gcPBM binding intensity (ln(normalized median fluorescence intensity)); higher = stronger DNA binding. The gist of the method:
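The binding buffer was 1× PBS containing 1% milk, 0.2 mg/ml BSA, 0.5% salmon testes DNA and 0.03% Triton X-100. In it, GST-tagged P. falciparum DNA-binding domains expressed in E. coli were applied for 1 h to an Agilent 4 × 180k array of primer-extended double-stranded 36-bp intergenic genomic probes plus negative controls. Binding intensity, read with Alexa488 anti-GST antibody and a 488 nm scan, is the highest Masliner-normalised natural-log median intensity across replicate spots of either probe orientation.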
With “TATAATCATATTAAGGGTACATATGTGTAAATATTT [XGTACX_site6018]”, the “gcPBM binding intensity (ln)” value is 7.05.

For “TTATTATAAATGTTTTGTACGTACATCCGAAAATAA [XGTACX_site2175]”, the “gcPBM binding intensity (ln)” value is 6.57.

Turning to “CTTTAAAACCGGTACTGTACACATAGTATTATTATC [XGTACX_site2602]”, the “gcPBM binding intensity (ln)” value stood at 6.58.

As to “ATAATAATAATATAACCAAGGAAATATAATATTTGT [XGTACX_negctrl_site485]”, the “gcPBM binding intensity (ln)” value turned out to be 6.27.

Regarding “CGATACTTTAGGTGTACACAAATATACATGAATGAG [CACACA_site5189]”, the “gcPBM binding intensity (ln)” value stood at 7.

On to “AAAAAAAAGGAAATAACACACATGTATTTATTTATA [CACACA_site4966]”, for which the “gcPBM binding intensity (ln)” value amounted to 6.3.

Regarding “AGCACATATATATTATGTACATATAACTTCCCAGTG [XGTACX_site7095]”, the “gcPBM binding intensity (ln)” value was 6.44.

As to “ATATTTATACATAAATGTACTTTTATATATTTAATA [XGTACX_site3020]”, the “gcPBM binding intensity (ln)” value was 6.17.

As to “AATATTATAAATGATACACACTTAAAATACACGCAC [CACACA_site7305]”, the “gcPBM binding intensity (ln)” value stood at 6.89.

In the case of “TATTACATAATACAAAGTACATATATTTTTTTATTT [XGTACX_site7061]”, the “gcPBM binding intensity (ln)” value turned out to be 6.19.

As for “GTATATATATATATATGTACTAATTAGTAGTTTACG [XGTACX_site6274]”, the “gcPBM binding intensity (ln)” value was found to be 6.98.

With “AATATAAATATTAAAACACACATAAAAAGATTATTA [CACACA_site1764]”, the “gcPBM binding intensity (ln)” value is 6.29.

With “TGATATTTACAAATATTAAGATCTTATATTTTTTTT [CACACA_negctrl_site617]”, the “gcPBM binding intensity (ln)” value is 6.27.

For “GTGTGAAACATAAACACACACAAAAAGAAAAAATAG [CACACA_site1227]”, the “gcPBM binding intensity (ln)” value amounted to 6.68.

Regarding “TATATATATATATTACGTACATAGAACTTTATAAAA [XGTACX_site4485]”, the “gcPBM binding intensity (ln)” value is 8.63.

Regarding AATATTTTATTTTGGGTGCAAAAGAATATTATTTCA, the “gcPBM binding intensity (ln)” value is 9.49.

For the sequence “ATGGACATCTATTGTTGTACACATTTTCCCATAACA [XGTACX_site5429]”, the “gcPBM binding intensity (ln)” value turned out to be 6.44.

In the case of “GTAGAGCATAATAAAACACACACATACATACATATA [CACACA_site8217]”, the “gcPBM binding intensity (ln)” value was determined as 8.67.

For “GAATATAAAATATATATATATATATATATATATATA [GTGCAC_negctrl_site425]”, the “gcPBM binding intensity (ln)” value was determined as 9.32.

On to “TTTCAAAAATGAGTTACACACACACGGATATAAATA [CACACA_site7116]”, for which the “gcPBM binding intensity (ln)” value is 6.61.

“GTAAAAAATATGACAAGTACAAGAAAAGAAAAAAGT [XGTACX_site7906]”: the “gcPBM binding intensity (ln)” value amounted to 7.02.

Turning to “ATAGAACTATATTGCACACATAATATATATATATAT [CACACA_site3189]”, the “gcPBM binding intensity (ln)” value came out at 10.7.

On to “AAAAGATTTATACATACACACATATTATATTCACAT [CACACA_site3713]”, for which the “gcPBM binding intensity (ln)” value was 6.59.

As for “TTATAAATATAAAAATGTACAGAAAAAAAAAATAAA [XGTACX_site863]”, the “gcPBM binding intensity (ln)” value came to 6.81.

As to “TTATTTTATAATAAAAGTACACAAAAAAAAAAAAAA [XGTACX_site7668]”, the “gcPBM binding intensity (ln)” value stood at 6.44.

On to “TTATTTCTCTTTTCAGTGCATTTTATAACAAAAAAA [GTGCAC_site9930]”, for which the “gcPBM binding intensity (ln)” value was 8.7.

As to “ATATATATAATATGCGGTACACATTAATTAAATCAT [XGTACX_site5702]”, the “gcPBM binding intensity (ln)” value was determined as 6.81.

For “TTATAATATATATACAGTACATATATAAAATAATAT [XGTACX_site5917]”, the “gcPBM binding intensity (ln)” value came out at 6.5.

With “TAATATAAAGAAAAGGAACACACAAATATATATATA [CACACA_site8049]”, the “gcPBM binding intensity (ln)” value is 8.45.

On to “AATATATATATATATACACACACACCGATATATATA [CACACA_site8158]”, for which the “gcPBM binding intensity (ln)” value was found to be 7.06.

Turning to “TAACAATTAATAAAAGGTACACTTGAATATGCACCA [XGTACX_site2717]”, the “gcPBM binding intensity (ln)” value worked out at 10.3.

Take “TTAATATTTAGACATGCATGCTAATTACTATATATA [TGCATGCA_site27]”: the “gcPBM binding intensity (ln)” value was 6.78.

Regarding “AATTTTAAGAGCTATACATGCACTTCATAAAAAGTG [TGCATGCA_site180]”, the “gcPBM binding intensity (ln)” value stood at 8.73.

Turning to “ATAATAAAAAAAAATGCACACATATATATATATATA [CACACA_site8766]”, the “gcPBM binding intensity (ln)” value is 9.5.

For the sequence “TATGATATAATTATGTGTACACAATTTTTTTTTTTT [XGTACX_site1084]”, the “gcPBM binding intensity (ln)” value stood at 6.55.

Consider “ATATATATTTTATTCACACATAAGATTATAAAACAT [CACACA_site5369]”, for which the “gcPBM binding intensity (ln)” value is 6.48.

With “TGTGTTCAGTATTGCACACACACAACAAAATAAAAA [CACACA_site8017]”, the “gcPBM binding intensity (ln)” value is 10.2.

Take “ATTAATAAGAAATATACACACATGGATAAATACATA [CACACA_site1872]”: the “gcPBM binding intensity (ln)” value is 6.54.

Take “TTTCTTGCTACATGAAGTACACTTTCTATGACTCGT [XGTACX_site5583]”: the “gcPBM binding intensity (ln)” value turned out to be 6.26.

Take “TAATTATGCAGACACACACACACACCCAACTAAAAA [CACACA_site2569]”: the “gcPBM binding intensity (ln)” value turned out to be 7.

With “TATTTATTGTGATACTTATATTACTTAATGATTAAA [CACACA_negctrl_site676]”, the “gcPBM binding intensity (ln)” value was 6.15.

On to “ATATATTATATAAAGTGTACAAAAAAAATATATAAA [XGTACX_site8065]”, for which the “gcPBM binding intensity (ln)” value turned out to be 7.14.

On to “CTATTTCATGGACACACACACACAAACAAACATATA [CACACA_site4696]”, for which the “gcPBM binding intensity (ln)” value came out at 7.02.

Take “TTATTGCATTGTTTTTATAAAAAAAAAAAAAAAATT [XGTACX_negctrl_site104]”: the “gcPBM binding intensity (ln)” value amounted to 6.28.

These data come from the supplement of paper PMC11417369.
